Hit rate of the full screen: of about 340,000 compounds, about 6,900 (2%) were called active. Cut-off read from the data, not from the text of the source: active = inhibition above about 30%; inactive = below that, where a call was filed. Only a part is listed here, and it is no random draw. Entries without a call were filed so in the source.
These molecules were tested against D(2) dopamine receptor (Homo sapiens) (UniProt P14416) (assay: HTS Assay for Allosteric Antagonists of the Human D2 Dopamine Receptor: Primary Screen for Antagonists). Conditions: HEK293 TREx D2 cells, calcium flux, dopamine EC80; at 10 µM; stronger effect = higher value.
Summary of the method: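 Overnight-induced (tetracycline, 30 C) HEK293 T-REx cells carrying force-coupled D2 receive a no-wash calcium dye, then compound, then EC80 dopamine at 180 s; signals are read kinetically throughout.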
Note: 0% is about no effect.

Chain of UniProt P14416 (P14416 whole entry, looked up): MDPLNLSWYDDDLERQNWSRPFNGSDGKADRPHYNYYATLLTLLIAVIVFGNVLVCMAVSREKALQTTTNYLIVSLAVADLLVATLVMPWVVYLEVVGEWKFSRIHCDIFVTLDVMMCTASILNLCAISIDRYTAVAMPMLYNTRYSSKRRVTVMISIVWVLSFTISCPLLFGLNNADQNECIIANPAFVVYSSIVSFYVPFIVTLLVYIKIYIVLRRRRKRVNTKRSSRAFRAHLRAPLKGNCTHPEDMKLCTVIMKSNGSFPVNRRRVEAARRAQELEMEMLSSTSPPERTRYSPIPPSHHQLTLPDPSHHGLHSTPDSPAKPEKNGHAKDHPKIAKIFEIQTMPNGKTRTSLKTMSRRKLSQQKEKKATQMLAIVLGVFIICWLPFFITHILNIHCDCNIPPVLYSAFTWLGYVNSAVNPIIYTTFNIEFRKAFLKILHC

| Compound | inhibition |
| --- | --- |
| CCCN(CC(=O)Nc1ccccc1C)C(=O)c1ccc(S(=O)(=O)N2CCCC2)cc1 | active: 30.4% |
| COCCn1c(N)c(C#N)c2nc3ccccc3nc21 | active: 36% |
| Cc1cc(OCc2nn[nH]n2)c2c(-c3ccccc3)cc(=O)oc2c1 | active: 51.1% |
| O=C(NC1CCCC1)c1ccc2c(=O)n(Cc3ccccc3)c(SCc3ccccc3F)nc2c1 | -11.2% |
| COc1ccc(C)cc1NC(=O)CCN1CCN(c2ccccc2)CC1 | active: 81.7% |
| CN1CCN(CCC=C2c3ccccc3Sc3ccc(S(=O)(=O)N(C)C)cc32)CC1 | active: 77.4% |
| O=c1nc2s/c(=C\c3ccco3)c(=O)n2nc1Cc1ccc(F)cc1 | active: 35.3% |
| COc1ccccc1CNC(=O)C1CCN(c2nc3ccc(C)cc3[nH]2)CC1 | 0.402% |
| Clc1ccccc1OCCSc1nnc(-c2cccs2)o1 | -18.4% |
| O=C(CSc1nc(=O)n(Cc2ccco2)c2c1CCC2)NCc1ccccc1 | -17.3% |
| CCc1ccc2oc(-c3ccc(C)c(NC(=O)/C=C/c4ccco4)c3)nc2c1 | 4.93% |
| Cc1sc2ncn(CC(=O)N3CCN(c4ccccc4F)CC3)c(=O)c2c1S(=O)(=O)N1CCC(C)CC1 | 16.4% |
| Cc1ccc2nc(/C(C#N)=C/c3ccccc3F)[nH]c2c1 | -10.4% |
| CCS(=O)(=O)N1CCc2cc(C(=O)NCc3ccccc3OC)ccc21 | -14.3% |
| CCOc1ccc(CCNC(=O)C2CCCN(S(=O)(=O)N(C)c3ccc(F)cc3)C2)cc1 (configuration not stated) | -9.45% |
| COc1cccc(NC(=O)C2CCC(CNS(=O)(=O)c3ccc4c(c3)CCCC(=O)N4)CC2)c1 (configuration not stated) | 3.58% |
| CCn1cc(CNC(=O)c2cc(-c3ccc(C)cc3)nc3ccc(Br)cc23)c(C)n1 | -17.2% |
| O=C(NCc1ccccc1)C(=O)Nc1c2c(nn1-c1ccc(F)cc1)CSC2 | 1.07% |
| COc1ccc(NC(=O)CN2C(=O)COc3ccc(S(=O)(=O)N4CCOCC4)cc32)cc1 | 10.5% |
| COc1cccc(NC(=O)C2CCN(c3ccc(Sc4ccc(C)cc4)nn3)CC2)c1 | 2.13% |
| Cc1ccc(CNC(=O)C(C)n2c(=O)cc(C(F)(F)F)c3c(C)nn(C)c32)cc1 (configuration not stated) | -8.13% |
| CCn1nc(C)c(CCN(C)C(=O)Nc2cccc(Cl)c2C)c1C | 9.72% |
| Cc1cccc(C(=O)N2CCc3cc(CNC(=O)c4cc5ccccc5[nH]4)ccc32)c1 | 7.37% |
| Cc1ccc(S(=O)(=O)C(CNC(=O)c2c(F)cccc2F)c2ccco2)cc1 (configuration not stated) | 2.22% |
| Cc1cc(C)c(S(=O)(=O)NCCS(=O)(=O)N2CCN(c3ccccc3)CC2)c(C)c1 | -2.8% |

| Compound | inhibition |
| --- | --- |
| O=S(=O)(c1ccccc1)c1nc(-c2ccccc2Cl)oc1N1CCCCCC1 | 2.53% |
| COc1ccc(CCNC(=O)c2ccc3c(c2)sc2nc(-c4ccccc4)cn23)cc1OC | 19.5% |
| COc1cccc(C(=O)NCCc2csc3nc(-c4ccccc4F)nn23)c1OC | -10% |
| CCOC(=O)c1cc(-c2ccc(OC)cc2)n(CCC(=O)NCCc2ccccc2)c1C | 18% |
| Cc1ccccc1N(C)S(=O)(=O)c1nnc(NC(=O)c2ccco2)s1 | -7.99% |
| Cc1cc(OCC(=O)NCCc2nc3ccccc3[nH]2)cc(C)c1Cl | -6.54% |
| Cc1ccc(CNC(=O)Cn2c(SCC(=O)Nc3ccc(F)cc3)nc3ccccc32)cc1 | 9.07% |
| CCOc1cc(/C=C2\CCCc3c2nc2ccccc2c3C(=O)O)ccc1OC | active: 38.1% |
| COc1cc(Cl)c(C)cc1NC(=O)COC(=O)C1=COCCO1 | active: 31.6% |
| CCOC(=O)c1cccc(NC(=O)c2ncoc2-c2ccco2)c1 | -5.98% |
| COc1cccc(Nc2nc3cc(C)ccc3nc2NS(=O)(=O)c2ccc(Cl)cc2)c1 | -24.2% |
| Cc1nc2ccccn2c(=O)c1NC(=O)c1cccc(F)c1 | 4.02% |
| COc1ccc(NC(=O)c2cc3cc(C)ccc3n2C)c(OC)c1 | active: 34.4% |
| COc1ccc(NC(=O)/C=C\C(=O)N(c2ccc(C(C)C)cc2)C(C(=O)NCc2ccco2)c2ccc(C)cc2)cc1 (configuration not stated) | -19.1% |
| CCOc1ccc(C2C(=O)N(C3CCCCCC3)CC(=O)N2Cc2ccccc2)cc1OC (configuration not stated) | -0.735% |
| Cc1cc(C)cc(OCCSc2nc3ccc(NC(=O)c4ccc5c(c4)OCO5)cc3s2)c1 | 1.04% |
| CCc1ccc2[nH]cc(S(=O)(=O)c3ccc(C(C)C)cc3)c(=O)c2c1 | -12.2% |
| Oc1ccccc1-c1nc(-c2cccs2)c(-c2cccs2)[nH]1 | -5.6% |
| O=C(COc1ccccc1Cl)Nc1ccc(OCc2cc(=O)n3ccsc3n2)cc1 | -16.3% |
| N#Cc1c[nH]n2c(NC3CCCCC3)c(-c3ccc(F)cc3)nc12 | 15% |
| Cc1cccc(-n2ccnc2SCC(=O)Nc2cccc3ccccc23)c1 | -13.5% |
| CN1CCN(CCCCOc2ccccc2-c2ccccc2)CC1 | active: 69.9% |
| CCOc1ccc(-c2cn3c(n2)sc2cc(C(=O)NCCCN4CCCCCC4)ccc23)cc1 | 7.3% |
| Cc1cc(C)c2nc(N(Cc3cccnc3)C(=O)CCS(=O)(=O)c3ccccc3)sc2c1 | -23.1% |
| Cc1cc(NC(=O)C2CCN(S(=O)(=O)c3c(C)noc3C)CC2)ccc1Br | 15.1% |

| Compound | inhibition |
| --- | --- |
| CC1=C(C(=O)Nc2cccnc2)C(c2ccc(F)cc2)n2nc(-c3cccc(C)c3)nc2N1 (configuration not stated) | 14.4% |
| COc1ccccc1CNC(=O)C1(c2cccs2)CCOCC1 | 1.34% |
| COc1ccc(-c2nc3nc(C)cc(C)n3c2Nc2c(C)cccc2C)cc1 | 5.66% |
| CCc1ccccc1NC(=O)Cn1nc2c3cc(F)ccc3n(Cc3cccc(C)c3)cc-2c1=O | 7.12% |
| COc1ccc(NC(=O)CCc2c(C)nc3c(c2C)c(=O)n(C)c(=O)n3C)c(OC)c1 | -13.6% |
| O=C(COc1ccccc1F)Nc1ccc2nc(SCC(=O)N3CCc4ccccc43)sc2c1 | 8.91% |
| CCOC(=O)c1c(NC(=O)c2cc(-c3ccccc3OC)on2)sc(C)c1C | -26.1% |
| C/C(=N\NC(=O)c1ccc(-c2ccccc2)cc1)C1C(=O)c2ccccc2C1=O | active: 84.4% |
| OCCC1CN(Cc2ccc(F)cc2)CCN1CCc1ccccc1 (configuration not stated) | active: 42.7% |
| CSc1nc(NCCOC(C)=O)c(C#N)c(-c2ccc(C(C)(C)C)cc2)n1 | -1.54% |
| COc1ccc(C2C(=O)N(C3CCCCC3)CC(=O)N2CCc2ccc(C)cc2)cc1OC (configuration not stated) | 8.07% |
| CC(NC(=O)c1cc(S(=O)(=O)N(C)C)ccc1Cl)C1CC2CCC1C2 (configuration not stated) | active: 35.2% |
| Clc1ccc(OCCCCN2CCc3ccccc3C2)cc1 | active: 91% |
| CNC(=O)C1CCC(Cn2c(=O)c3sccc3n(Cc3cc(C)ccc3C)c2=O)CC1 (configuration not stated) | 2.45% |
| COc1ccc(N2C(=O)NC(NS(=O)(=O)c3ccc(Cl)cc3)(C(F)(F)F)C2=O)cc1 (configuration not stated) | 13.8% |
| Cc1ccccc1-c1nc(CN2CCCC(C(=O)NCc3ccc(Cl)cc3)C2)c(C)o1 (configuration not stated) | 15.6% |
| CCN(C(=O)Cn1c(C(=O)OC)cc2sc(Cl)cc21)c1cccc(C)c1 | -4.95% |
| CCc1ccc(S(=O)(=O)c2cn(CC(=O)Nc3ccc(F)c(Cl)c3)c3ccccc3c2=O)cc1 | 0.671% |
| COc1ccc([N+](=O)[O-])cc1NC(c1nnc(-c2ccccc2)o1)c1ccccc1F (configuration not stated) | 0.999% |
| COc1ccccc1C1NC(=O)c2n[nH]c(-c3cccs3)c21 (configuration not stated) | 16.4% |
| CC1CCN(C(=O)c2c(NC(=O)c3ccccc3Cl)sc3c2CCC(C(C)(C)C)C3)CC1 (configuration not stated) | -12.7% |
| COc1cc(C2CC(=O)N(Cc3cccc(F)c3)c3ccccc3S2)cc(OC)c1OC (configuration not stated) | -1.36% |
| COc1ccc(C2CCCN2C(=O)c2cccs2)cc1 (configuration not stated) | active: 78.5% |
| Cc1cc2nc(-c3ccc(OCc4ccccc4C)cc3)cc(C(F)(F)F)n2n1 | 2.93% |
| Cc1ccc(CN2C(=O)C(O)(c3c(C)[nH]c4ccccc34)c3ccccc32)cc1 (configuration not stated) | -14.1% |

| Compound | inhibition |
| --- | --- |
| CCCOC(=O)c1cccc(Nc2nc(CCC)cc(=O)[nH]2)c1 | -11.3% |
| COc1ccc(NC(=O)C2CCC(CNS(=O)(=O)c3cccc4nsnc34)CC2)cc1OC (configuration not stated) | -11.1% |
| COCCNC(=O)CCCn1c(SCC(=O)Nc2ccc(F)cc2)nc2c(sc3ccccc32)c1=O | 6.87% |
| COc1ccc(C(=O)n2nc(N)c3cc4ccc(C)cc4nc32)cc1OC | -10.2% |
| CCOC(=O)Cn1c(=N)n(Cc2ccc(C(C)(C)C)cc2)c2ccccc21 | -5.88% |
| COC(=O)c1cc2oc(C)cc2n1Cc1ccccc1Cl | 2.59% |
| Cc1nc2cc(-c3ccccc3)nn2c(C)c1CCC(=O)N1CCN(c2ccc(F)cc2)CC1 | 11.3% |
| COc1ccc(Cl)cc1NC(=O)c1c(NCc2ccc(C)o2)sc2c1CCC(C)C2 (configuration not stated) | 10.5% |
| Cc1ccc(-c2cn3cccnc3n2)cc1NC(=O)C(C)(C)Oc1ccc(Cl)cc1 | 9.41% |
| COc1ccc(N(C(=O)CNC(=O)c2ccco2)C(C(=O)NC2CCCCC2)c2cccnc2)cc1 (configuration not stated) | active: 38.1% |
| C=C(C)CSc1nc2sc3c(c2c(=O)n1Cc1ccccc1)CC(C)(CC)OC3 (configuration not stated) | -1.05% |
| Cc1c(C(=O)Nc2ccccc2Br)oc2ccc(S(=O)(=O)N3CCCCCC3)cc12 | -20.4% |
| COc1cccc(NCc2cccn2-c2nnc(N3CCC(C)CC3)s2)c1 | -2.19% |
| CCC(C)NC(=O)CN1C(=O)c2cccnc2Sc2ccccc21 (configuration not stated) | 4.63% |
| O=c1cc(-c2ccccc2)c2ccc3c(c2o1)CN(Cc1cccc(Cl)c1)CO3 | 3.49% |
| Cc1ccccc1NC(=O)Cn1c(=O)n(CCCC(=O)NCc2ccc3c(c2)OCO3)c(=O)c2ccccc21 | 18.4% |
| CCOc1ccc(CC(=O)Nc2cccc(-c3nc4cccnc4s3)c2C)cc1 | 14.8% |
| COc1ccc2[nH]cc(CCN=C(NC(=O)c3ccccc3F)Nc3nc(C)cc(C)n3)c2c1 | 6.66% |
| CC1N=C2c3ccccc3N=C(SCC(=O)NCCc3ccc(Cl)cc3)N2C1=O (configuration not stated) | -3.35% |
| CCn1c2ccccc2c2cc(CN3CCN(Cc4ccc(Br)cc4)CC3)ccc21 | 0.765% |
| O=C(CCS(=O)(=O)c1cc2c(cc1Cl)NC(=O)CO2)NCc1ccc(Cl)cc1 | 21.3% |
| O=C(Cc1ccc(Cl)cc1)NNC(=S)NC(=O)c1cccnc1 | active: 39.7% |

— PubChem BioAssay AID485344 (National Center for Advancing Translational Sciences (NCATS), 2010)
